In ChEMBL document CHEMBL5308541, “MAIP: An Open-Source Tool to Enrich High-Throughput Screening Output and Identify Novel, Druglike Molecules with Antimalarial Activity” (ACS Med Chem Lett, 2023):
Hit rate of the full screen: of about 150,000 compounds, about 540 (0.36%) showed an effect of 50% or more. The list shows a part of the results.

test system: Plasmodium falciparum; test: Primary screen in NF54 nanoGlo assay, in single point, at 2uM, 72h; a lower Z score goes with more inhibition; assay type: functional, Erythrocyte; conditions: timepoint 72 hour

First: O=C(NS(=O)(=O)CCC(F)(F)F)c1ccc(-c2noc(C(F)F)n2)cc1
Second: CN(CCc1ccccn1)C(=O)c1ccc(-c2cc(-c3cccc(C(F)(F)F)c3)n[nH]2)cc1
The “% Inhibition” value of the first is lower: -4% for the first, -1% for the second.

Going from `O=C(O)C1CC1C(=O)N1CCC(C(F)(F)F)CC1` (centres undefined) to `Nc1cnccc1-c1ccc(C(=O)N2CCC(N3CCCCC3)CC2)cc1`, the “% Inhibition” value rises from -1% to 1%.

Compared with `N#Cc1cc(CN2CCCC[C@H]2c2cc[nH]n2)c(F)cc1F`, `Oc1nc(CN2C[C@@H]3CCCCN3c3ccccc32)n[nH]1` is lower in “% Inhibition” value: -6% for the first, -21% for the second.

Going from `CN(C)CC1CCC(NC2CCN(c3nccs3)CC2)CC1` (centres undefined) to `CC(C)N1CCC(NC(=O)CN2CCCN(Cc3cnn(C)c3)CC2)CC1`, the “% Inhibition” value rises from -4% to 0%.

Compared with `CNC(=O)Cn1nnc(CO)c1CCc1ccccc1`, `CN1CCCN(CCCN[C@@H](Cc2ccccc2)C2CC2)CC1` is higher in “% Inhibition” value: -5% for the first, 9% for the second.

First: Cc1nn(C)cc1-c1cccc(C(=O)N2CCC(N3CCCCCC3)CC2)c1
Second: O=C(Nc1ncc(-c2ccccc2)s1)N1CCN(C2CCOCC2)CC1
The “% Inhibition” value of the first is higher: 5% for the first, -1% for the second.

Compared with `CCC(CO)(CO)NC(=O)c1ncc(C(C)(C)C)o1`, `CCN(CC)CCNc1nc2cc(C)cc(C)c2s1` is higher in “% Inhibition” value: -4% for the first, 3% for the second.

First: c1cc(CNc2ncnc3c2CCCC3)cc(-c2cnco2)c1
Second: CNc1nc(N[C@H]2C[C@@H](c3cc(NCCO)ncn3)C2)nc2c1CCC2
The “% Inhibition” value of the first is lower: -14% for the first, -11% for the second.

First: O=C(NC[C@H](O)c1cccc(O)c1)c1cc(O)c2cccc(F)c2n1
Second: CCNc1ccc(Cl)cc1NC(=O)Cc1c(C)[nH]c2ccccc12
The “% Inhibition” value of the first is higher: 5% for the first, -16% for the second.

Going from `O[C@H]1CCN(c2ccnc(-c3cc(NC4CCCC4)nc4[nH]ccc34)n2)C1` to `COC12CCC(Oc3ccccn3)CC1N(c1ncnc3[nH]ccc13)CC2` (centres undefined), the “% Inhibition” value falls from -3% to -5%.

Going from `C[C@@H](CC(=O)N(CCO)CCOCCO)Cc1cccc(F)c1` to `COC(=O)CC1CN(C2CCc3c(F)cccc32)CCO1` (centres undefined), the “% Inhibition” value rises from -14% to -6%.

Compared with `Cc1cc(C(N)=O)c(NC2COCC2N2CCN(C)CC2)nc1C` (centres undefined), `CCn1ncc2cc(C(=O)N(C)[C@H]3CCN(C4CCN(C)CC4)C3)c(C)nc21` is higher in “% Inhibition” value: -4% for the first, 6% for the second.

First: CCCN(C)C[C@H]1CCN(c2nc(C)nc3[nH]ccc23)C1
Second: CN(C)C(=O)CN1CCC(Nc2nc3ccc(Cl)cc3s2)C(O)C1 (centres undefined)
The “% Inhibition” value of the first is lower: -4% for the first, 0% for the second.

Going from `COCCNc1nc2cc(C(=O)NC3CCCN4CCCC34)ccc2n1C` (centres undefined) to `CCOc1ccc2nc(N3CCC(C(=O)N4CCNC(=O)[C@@H]4c4ccc(F)cc4)CC3)nc(C)c2c1`, the “% Inhibition” value falls from -1% to -17%.

Compared with `Cn1ccc2c(-c3cccc([C@@H]4CCCN4)c3)ccnc21`, `c1ccc(-c2ccnc(CCNC3CCN(Cc4ccco4)CC3)n2)cc1` is higher in “% Inhibition” value: -15% for the first, 3% for the second.

Going from `CC(c1nnnn1C1CC1)N(C)C[C@@H]1OCCN(C)[C@H]1c1ccccc1` (some centres undefined) to `C[C@@H]1C[C@H](Cn2nnnc2Cc2ccccn2)C[C@H](C)O1`, the “% Inhibition” value rises from -2% to 0%.

`COc1cc2nc(-c3cc(Cl)c(O)cc3C)nc(N)c2cc1OC` and `CC(C)c1nnc(NCc2ccc3occc3c2)o1` are the same in “% Inhibition” value: 2% for the first, 2% for the second.

First: CC(C)N1CCN([C@H]2CCN(C(=O)c3ccc(F)c4ccncc34)C2)CC1
Second: C[C@H](NC(=O)N1CCC(Oc2cnccn2)CC1)c1ccc2[nH]ncc2c1
The “% Inhibition” value of the first is higher: -2% for the first, -7% for the second.

Going from `CC(=O)NC1CCC(Cc2nnc(NC3CCc4ccccc4C3)o2)C1` (centres undefined) to `CN(Cc1cccc2cnccc12)C(=O)[C@@H]1C[C@@H](NC(=O)CC2CCCC2)CN1`, the “% Inhibition” value rises from -11% to 5%.

Compared with `Cc1cnc(NC2CC(C)OC(C)C2)nc1NC1CC(C)OC(C)C1` (centres undefined), `CN1CC[C@@]2(CCC1=O)CN(c1ncc(F)c(N3CCOCC3)n1)CCN2C` is lower in “% Inhibition” value: 21% for the first, -8% for the second.

First: OCC1CCN(CCNCc2cccc3cn[nH]c23)CC1
Second: OC1CN(c2nc(-c3ccncc3)nc3c2CNC3)CC1N1CCOCC1 (centres undefined)
The “% Inhibition” value of the first is higher: -4% for the first, -16% for the second.

Going from `O=C(NS(=O)(=O)CCC(F)(F)F)c1ccc(-c2noc(C(F)F)n2)cc1` to `CN(CCc1ccccn1)C(=O)c1ccc(-c2cc(-c3cccc(C(F)(F)F)c3)n[nH]2)cc1`, the Z score falls from 0.55 to 0.15.

Compared with `O=C(O)C1CC1C(=O)N1CCC(C(F)(F)F)CC1` (centres undefined), `Nc1cnccc1-c1ccc(C(=O)N2CCC(N3CCCCC3)CC2)cc1` is lower in Z score: 0.28 for the first, -0.12 for the second.

First: N#Cc1cc(CN2CCCC[C@H]2c2cc[nH]n2)c(F)cc1F
Second: Oc1nc(CN2C[C@@H]3CCCCN3c3ccccc32)n[nH]1
The Z score of the first is lower: 1.06 for the first, 3.2 for the second.

First: CN(C)CC1CCC(NC2CCN(c3nccs3)CC2)CC1 (centres undefined)
Second: CC(C)N1CCC(NC(=O)CN2CCCN(Cc3cnn(C)c3)CC2)CC1
The Z score of the first is higher: 0.7 for the first, 0.01 for the second.

Compared with `CNC(=O)Cn1nnc(CO)c1CCc1ccccc1`, `CN1CCCN(CCCN[C@@H](Cc2ccccc2)C2CC2)CC1` is lower in Z score: 0.8 for the first, -1.64 for the second.

Compared with `Cc1nn(C)cc1-c1cccc(C(=O)N2CCC(N3CCCCCC3)CC2)c1`, `O=C(Nc1ncc(-c2ccccc2)s1)N1CCN(C2CCOCC2)CC1` is higher in Z score: -1.07 for the first, 0.23 for the second.

First: CCC(CO)(CO)NC(=O)c1ncc(C(C)(C)C)o1
Second: CCN(CC)CCNc1nc2cc(C)cc(C)c2s1
The Z score of the first is higher: 0.63 for the first, -0.45 for the second.

First: c1cc(CNc2ncnc3c2CCCC3)cc(-c2cnco2)c1
Second: CNc1nc(N[C@H]2C[C@@H](c3cc(NCCO)ncn3)C2)nc2c1CCC2
The Z score of the first is higher: 2.49 for the first, 2 for the second.

First: O=C(NC[C@H](O)c1cccc(O)c1)c1cc(O)c2cccc(F)c2n1
Second: CCNc1ccc(Cl)cc1NC(=O)Cc1c(C)[nH]c2ccccc12
The Z score of the first is lower: -1.14 for the first, 2.71 for the second.

First: O[C@H]1CCN(c2ccnc(-c3cc(NC4CCCC4)nc4[nH]ccc34)n2)C1
Second: COC12CCC(Oc3ccccn3)CC1N(c1ncnc3[nH]ccc13)CC2 (centres undefined)
The Z score of the first is lower: 0.6 for the first, 0.91 for the second.

Compared with `C[C@@H](CC(=O)N(CCO)CCOCCO)Cc1cccc(F)c1`, `COC(=O)CC1CN(C2CCc3c(F)cccc32)CCO1` (centres undefined) is lower in Z score: 2.11 for the first, 1.22 for the second.

First: Cc1cc(C(N)=O)c(NC2COCC2N2CCN(C)CC2)nc1C (centres undefined)
Second: CCn1ncc2cc(C(=O)N(C)[C@H]3CCN(C4CCN(C)CC4)C3)c(C)nc21
The Z score of the first is higher: 0.66 for the first, -0.97 for the second.

Compared with `CCCN(C)C[C@H]1CCN(c2nc(C)nc3[nH]ccc23)C1`, `CN(C)C(=O)CN1CCC(Nc2nc3ccc(Cl)cc3s2)C(O)C1` (centres undefined) is lower in Z score: 0.63 for the first, 0.02 for the second.

First: COCCNc1nc2cc(C(=O)NC3CCCN4CCCC34)ccc2n1C (centres undefined)
Second: CCOc1ccc2nc(N3CCC(C(=O)N4CCNC(=O)[C@@H]4c4ccc(F)cc4)CC3)nc(C)c2c1
The Z score of the first is lower: 0.27 for the first, 3.06 for the second.

Going from `Cn1ccc2c(-c3cccc([C@@H]4CCCN4)c3)ccnc21` to `c1ccc(-c2ccnc(CCNC3CCN(Cc4ccco4)CC3)n2)cc1`, the Z score falls from 2.27 to -0.62.

Going from `CC(c1nnnn1C1CC1)N(C)C[C@@H]1OCCN(C)[C@H]1c1ccccc1` (some centres undefined) to `C[C@@H]1C[C@H](Cn2nnnc2Cc2ccccn2)C[C@H](C)O1`, the Z score falls from 0.44 to -0.08.

First: COc1cc2nc(-c3cc(Cl)c(O)cc3C)nc(N)c2cc1OC
Second: CC(C)c1nnc(NCc2ccc3occc3c2)o1
The Z score of the first is lower: -0.41 for the first, -0.37 for the second.

Compared with `CC(C)N1CCN([C@H]2CCN(C(=O)c3ccc(F)c4ccncc34)C2)CC1`, `C[C@H](NC(=O)N1CCC(Oc2cnccn2)CC1)c1ccc2[nH]ncc2c1` is higher in Z score: 0.32 for the first, 1.32 for the second.

Going from `CC(=O)NC1CCC(Cc2nnc(NC3CCc4ccccc4C3)o2)C1` (centres undefined) to `CN(Cc1cccc2cnccc12)C(=O)[C@@H]1C[C@@H](NC(=O)CC2CCCC2)CN1`, the Z score falls from 2.42 to -0.98.

First: Cc1cnc(NC2CC(C)OC(C)C2)nc1NC1CC(C)OC(C)C1 (centres undefined)
Second: CN1CC[C@@]2(CCC1=O)CN(c1ncc(F)c(N3CCOCC3)n1)CCN2C
The Z score of the first is lower: -3.61 for the first, 1.33 for the second.

First: OCC1CCN(CCNCc2cccc3cn[nH]c23)CC1
Second: OC1CN(c2nc(-c3ccncc3)nc3c2CNC3)CC1N1CCOCC1 (centres undefined)
The Z score of the first is lower: 0.87 for the first, 2.84 for the second.
